The campaign covered roughly 340,000 compounds. About 2,100 (0.62%) were called active. Inconclusive means that the source gave no clear call. Such entries were picked first, then a sample of the others.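 Rule for the calls: active = first-screen hits whose inhibition reached a set limit at any dose in the follow-up dose series; inconclusive = inhibition above the set first-screen limit but never retested; inactive = the rest.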
What follows are molecules tested against Rac GTPase-activating protein 1 (Homo sapiens) (UniProt Q9H0H5) (assay: blockers of MgcRacGAP-driven Rac1 GTP hydrolysis – biochemical, ADP Hunter fluorescence, primary and confirmatory, confirmation (AID 624330;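 note: fluorescence reports GDP produced by GAP-driven GTP hydrolysis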)). Settings: MgcRacGAP-stimulated Rac1 GTP hydrolysis, at 30 µM, active compounds read high, GST-tagged Rac1 F28L mutant substrate.
Chain of UniProt Q9H0H5 (Q9H0H5 whole entry, looked up): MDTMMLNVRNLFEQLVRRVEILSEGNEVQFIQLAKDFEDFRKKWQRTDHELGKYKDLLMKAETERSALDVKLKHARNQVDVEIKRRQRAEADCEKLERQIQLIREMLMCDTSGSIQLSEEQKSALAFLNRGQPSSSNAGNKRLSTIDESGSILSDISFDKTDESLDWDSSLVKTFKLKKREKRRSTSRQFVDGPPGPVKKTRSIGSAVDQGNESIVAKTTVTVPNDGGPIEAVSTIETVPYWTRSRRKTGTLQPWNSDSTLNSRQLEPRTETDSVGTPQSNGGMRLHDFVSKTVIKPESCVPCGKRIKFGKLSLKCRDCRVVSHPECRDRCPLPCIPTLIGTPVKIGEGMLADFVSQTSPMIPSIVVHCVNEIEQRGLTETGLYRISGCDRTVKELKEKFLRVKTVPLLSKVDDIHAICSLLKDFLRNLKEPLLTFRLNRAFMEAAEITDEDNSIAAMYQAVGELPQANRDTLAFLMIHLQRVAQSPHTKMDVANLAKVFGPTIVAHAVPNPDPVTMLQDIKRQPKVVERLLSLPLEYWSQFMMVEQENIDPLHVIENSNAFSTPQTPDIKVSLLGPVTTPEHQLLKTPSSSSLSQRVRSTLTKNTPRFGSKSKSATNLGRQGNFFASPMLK
`CCNC(=O)/C(C#N)=C/c1c(N2CCN(c3ccc(OC)cc3)CC2)nc2c(C)cccn2c1=O` was tested, and the inhibition was inconclusive: 33.1%.
For `Cc1ccc(-n2c(CNc3cccc(Cl)c3)n[nH]c2=S)cc1`, the inhibition was inactive: -10.3%.
`CC(=O)Oc1cc2oc(=O)cc(C)c2cc1OC(C)=O` was tested, and the inhibition was inconclusive: 49.2%.
For `C#CCOCCOCCOCCNc1nc(N2CCN(C(=O)CCCCCCCCCCNC(=O)[C@H](CCCCN)n3cc(CCO)nn3)CC2)nc(N2CCN(C(=O)CCCCCCCCCCNC(=O)[C@@H]([C@H](C)O)n3cc(C)nn3)CC2)n1`, the inhibition was inconclusive: 49.9%.
In the case of `CCN(CC)c1ccc(NC(=O)CSc2nnc3nc(C)cc(C)n23)cc1`, the inhibition is reported as inconclusive: 33%.
`Cc1ccc(-n2nnnc2C(Cl)(Cl)c2nnnn2-c2ccc(C)cc2)cc1` was tested, and the inhibition was inconclusive: 76%.
For `O=C(Nc1nnc(C2CC2)s1)C1Cc2ccccc2CN1C(=O)c1ccco1` (stereo not drawn), the inhibition was inactive: 6.66%.
In the case of `COc1ccc(N2CCN(C(=O)C3CCCN3S(=O)(=O)c3cccc4nsnc34)CC2)cc1` (stereo not drawn), the inhibition is reported as inconclusive: 35.8%.
`C[C@@H]1CN([C@H](C)CO)C(=O)c2cc(Br)cnc2O[C@@H]1CN(C)C(=O)c1ccccc1` was tested, and the inhibition was inactive: 14.7%.
For `COc1cccc(C(=O)N2CCN(Cc3ccc(OC)cc3OC)CC2)c1`, the inhibition was inconclusive: 34.3%.
In the case of `O=C(O)[C@H]1CCCC[C@H]1C(=O)Nc1ccc(Nc2ccccc2)cc1`, the inhibition is reported as inconclusive: 43.4%.
With `Cc1ccc(S(=O)(=O)N/N=C/c2ccc(O)cc2O)cc1[N+](=O)[O-]` the inhibition was inconclusive: 71.3%.
With `COc1ccc(CCN(C)C(=O)C2CCN(Cc3ccccc3)CC2)cc1OC` the inhibition was inconclusive: 33.8%.
With `Cc1ccc(S(=O)(=O)N2CCOCC2)cc1NC(=O)CN1CCN(C)CC1` the inhibition was inactive: 4%.
With `CC(=O)c1ccc(NC(=O)CSc2nnc(C3CC3)n2C)cc1` the inhibition was inactive: -6.69%.
For `CC(C)C1N=C2c3ccccc3N=C(SCC(=O)NCCc3ccc(S(N)(=O)=O)cc3)N2C1=O` (stereo not drawn), the inhibition was inactive: 1.59%.
`COc1ccc(/C=C/c2ccc3ccccc3[n+]2C)cc1OC` was tested, and the inhibition was inactive: -0.83%.
With `CN(C)c1ccc(NC(=O)Oc2ccccc2)cc1` the inhibition was inconclusive: 79%.
With `O=C1CC(c2ccc(O)c(O)c2)Oc2cc(O)cc(O)c21` (stereo not drawn) the inhibition was inconclusive: 39.6%.
With `O=C(CSCSCC(=O)NCC1CCCO1)NCC1CCCO1` (stereo not drawn) the inhibition was inactive: 9.35%.
With `CCOc1cc(/C=C2/C(=O)ON=C2C)ccc1O` the inhibition was inactive: 21.6%.
In the case of `CN(C)Cc1c(O)ccc2occ(C(=O)c3ccccc3)c12`, the inhibition is reported as inactive: 6.64%.
`Cn1c(=O)c2ncn(CC(=O)NCCOCc3ccccc3Cl)c2n(C)c1=O` was tested, and the inhibition was inactive: 0.57%.

Source: PubChem BioAssay AID624330 (Southern Research Specialized Biocontainment Screening …, 2012)
